The whole screen tested about 48,000 compounds, of which about 550 (1.1%) were called active. Roughly 4% stayed inconclusive and do not appear here. No stated cut-off is given here; in the data, active means potency below about 15 µM; inconclusive means mostly about 16 µM to 33 µM; inactive means weaker than that. The list shows a part of the results. A value given as a limit tells only on which side of the number the result lay.
Potency means the concentration at half of the fitted maximal effect.

UniProt P04062, sequence (P04062 whole entry, looked up): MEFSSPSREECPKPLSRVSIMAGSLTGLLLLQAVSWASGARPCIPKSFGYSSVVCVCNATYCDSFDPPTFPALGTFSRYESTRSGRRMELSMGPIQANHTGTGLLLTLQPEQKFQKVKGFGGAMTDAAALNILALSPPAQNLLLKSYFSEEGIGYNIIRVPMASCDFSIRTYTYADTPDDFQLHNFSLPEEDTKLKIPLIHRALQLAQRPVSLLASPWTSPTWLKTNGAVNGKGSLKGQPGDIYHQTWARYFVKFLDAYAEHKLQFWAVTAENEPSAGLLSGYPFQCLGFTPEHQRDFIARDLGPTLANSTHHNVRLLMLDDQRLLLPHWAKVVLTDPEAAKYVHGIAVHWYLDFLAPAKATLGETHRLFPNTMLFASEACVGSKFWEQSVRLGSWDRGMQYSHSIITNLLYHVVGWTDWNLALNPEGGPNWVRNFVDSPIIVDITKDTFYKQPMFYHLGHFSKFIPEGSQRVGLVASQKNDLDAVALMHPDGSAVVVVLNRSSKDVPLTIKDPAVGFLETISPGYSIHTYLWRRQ

This test deals with Lysosomal acid glucosylceramidase (Homo sapiens) (UniProt P04062). Nature of the test: Glucocerebrosidase.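 Further: the screen sought inhibitors.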 The settings on record: purified enzyme, resorufin glucoside fluorescence (screen aimed at inhibitors), 20 min. Put shortly:
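Normal human glucocerebrosidase (0.2 nM final) was assayed with resorufin β-D-glucopyranoside (30 uM final) in 50mM citric acid/KH2PO4, 10mM sodium taurocholate, 0.01% tween-20, pH 5.9. Compounds were titrated; fluorescence (Ex 548, Em 600) read after 20 min at RT.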
For `CC(C)Nc1c(N)c(=O)oc2ccccc12`, the Potency was inactive: > 76.9 µM.
Turning to `COc1ccccc1C(=O)n1nc(-c2ccccc2)nc1N`, the Potency was inactive: > 76.9 µM.
For the compound `CC(=O)NC1(c2cccc(F)c2)CCN(C(=O)Nc2ccc(C#N)cc2)CC1`, the Potency is inactive: > 76.9 µM.
`COCCOC(=O)C1=C(C)NC(=O)NC1c1cn(-c2ccccc2)nc1-c1cccs1` (centres undefined): the Potency is inactive: > 76.9 µM.
As to `COCCn1nnnc1C(c1cc2cc(C)cc(C)c2[nH]c1=O)N1CCN(c2ccccc2F)CC1` (centres undefined), the Potency is inactive: > 76.9 µM.
The result for `O=C(O)CCSc1nc2ccccc2c(=O)[nH]1` reads inactive: > 76.9 µM; that for `COc1ccc(CN2CC(C(=O)NCCCOC(C)C)CC2=O)cc1` (centres undefined), inactive: > 76.9 µM; that for `Cc1nc(N2CCC(C)CC2)c2c(C)c(C(=O)O)sc2n1`, inactive: > 76.9 µM.
The result for `Cc1nccc2[nH]c(=O)c(C(=O)NCCCN(C)C3CCCCC3)cc12` reads inactive: > 76.9 µM.
For `O=C(CN1C(=O)CCC1=O)Nc1nc(-c2cccs2)cs1`, the Potency is inactive: > 76.9 µM.
The same measure for `c1cn(C23CC4CC(CC(C4)C2)C3)cn1`: inactive: > 76.9 µM.
As to `Clc1ccc(-c2nnc3sc(-c4ccccn4)nn23)cc1`, the Potency is inactive: > 76.9 µM.
In the case of `O=C(NCCN1CCN(c2ccccc2F)CC1)C1c2ccccc2C(=O)N2CCc3ccccc3C12` (centres undefined), the Potency is inactive: > 76.9 µM.
Take `Cc1nn(-c2nnc(C)c(=O)[nH]2)c(C)c1SCC(=O)Nc1ccc(C(C)C)cc1`: the Potency is inactive: > 76.9 µM.
On to `C=C(C)C(C)(C#CCN1CCCC1)OC(C)=O` (centres undefined), for which the Potency is inactive: > 76.9 µM.
The result for `CCOc1ccccc1-n1c(SCC(=O)NC)nnc1-c1ccco1` reads inactive: > 76.9 µM; that for `N#Cc1nc(-c2ccccc2F)oc1N1CCCC1`, inactive: > 76.9 µM; that for `CCOc1ccc(C(=O)NC2CCN(S(C)(=O)=O)CC2)cc1`, inactive: > 76.9 µM.
Take `CCC(=O)Nc1ccc(NC(=O)C23CC4CC(CC(C4)C2)C3)cn1`: the Potency is inactive: > 76.9 µM.
Regarding `O=C(NCCc1ccccc1)c1nc2c(nnn2Cc2ccccc2Cl)c(=O)[nH]1`, the Potency was inactive: > 76.9 µM.
For the compound `CCOC(=O)Cc1csc(NC(=O)CSc2nnc(-c3ccncc3)n2Cc2ccco2)n1`, the Potency is inactive: > 76.9 µM.
For `CCOc1ccc(CN2CCN(c3cc(C)nc4c5c(C)cc(C)nc5nn34)CC2)cc1`, the Potency was inactive: > 76.9 µM.
As for `COc1ccc(-c2ccc(-c3nnc(Cc4ccc(OC)c(OC)c4)o3)cc2)cc1`, the Potency was inactive: > 76.9 µM.
Take `Cn1c(CCN2CCCCC2)nc2cc(NC(=O)C3CCCCC3)ccc21`: the Potency result is “inactive”.
As to `CCOC(=O)C(CC)n1cnc2c(cnn2-c2ccc(Cl)cc2)c1=O` (centres undefined), the Potency is inactive: > 76.9 µM.
The same measure for `CCCCn1c(=NC(=O)c2ccc3c(c2)OCO3)c(C#N)cc2c(=O)n3cccc(C)c3nc21`: inactive: > 76.9 µM.
With `CCN(CC)S(=O)(=O)c1ccc2[nH]cc(C(=O)NCCc3ccc(OC)c(OC)c3)c(=O)c2c1`, the Potency is inactive: > 76.9 µM.
For the compound `CCOc1ccc2[nH]c(=O)c(C(c3nnnn3Cc3ccco3)N3CCCC(C)C3)cc2c1` (centres undefined), the Potency entry is “inactive”.
Turning to `CCn1c(SCC(=O)O)nnc1C1CCCCC1`, the Potency was inactive: > 76.9 µM.
`O=C(Cn1nnc(-c2ccccc2)n1)NCc1cccs1`: the Potency was inactive: > 76.9 µM.
As to `O=C(CCn1c(=S)[nH]c2ccccc2c1=O)N1CCN(c2ccccn2)CC1`, the Potency was inactive: > 76.9 µM.
For `Cn1ccnc1C(O)c1ccco1` (centres undefined), the Potency was inactive: > 76.9 µM.
The result for `CC(C)(C)n1nc2c(c1NC(=O)c1cccs1)CS(=O)C2` (centres undefined) reads inactive: > 76.9 µM; that for `COc1ccc(OC)c(NC(=O)CC(Cc2ccccc2OC)C(=O)O)c1` (centres undefined), inactive: > 76.9 µM.
For `COc1ccccc1-c1nnc(NC(=O)c2ccc(S(=O)(=O)N(C)C)cc2)o1`, the Potency was inactive: > 76.9 µM.
Consider `CCOc1ccc(C2=CS/C(=C(\C#N)c3nnc4n3CCCCC4)N2CC)cc1`, for which the Potency was inactive: > 76.9 µM.
Take `CCn1ccc(=N)cc1`: the Potency was inactive: > 76.9 µM.
As to `Nc1cc(OC(=O)c2cccs2)nn1S(=O)(=O)c1ccccc1`, the Potency was inactive: > 76.9 µM.
With `Cc1cc(=O)oc2cc(NC(=O)C3COc4ccccc4O3)ccc12` (centres undefined), the Potency is inactive: > 76.9 µM.
Turning to `Cc1nnc(SCCn2c(N3CC(C)CC(C)C3)nc3c2c(=O)n(C)c(=O)n3C)s1` (centres undefined), the Potency was inactive: > 76.9 µM.
For `CCN(CC)C(=O)CSc1nnc([C@@H](NC(=O)OC(C)(C)C)C(C)C)o1`, the Potency is inactive: > 76.9 µM.
As for `CC(C)(C)C(=O)COC(=O)c1ccc(O)cc1`, the Potency was inactive: > 76.9 µM.
For the compound `COC(=O)c1cn(C)c2ccc(S(=O)(=O)N3CCCCC3)cc2c1=O`, the Potency was inactive: > 76.9 µM.
The same measure for `COCCNC(=O)c1ccc(C(=O)NCCOC)s1`: inactive: > 76.9 µM; for `CCn1c(NCc2c[nH]c3ccccc23)nc2ccccc21`: inactive: > 76.9 µM.
For the compound `CCOC(=O)C1CCN(Cc2nc3ccccc3c(=O)n2-c2ccc(OCC)cc2)CC1`, the Potency was inactive: > 76.9 µM.
For the compound `Cc1ccc(C2C(C#N)=C(N)Oc3n[nH]c(C)c32)cc1` (centres undefined), the Potency was inactive: > 76.9 µM.
On to `O=C(CSc1nnc(-c2ccco2)n1CC1CCCO1)c1ccccc1` (centres undefined), for which the Potency was inactive: > 76.9 µM.
As to `CCS(=O)(=O)CCSc1nc(C)cc(C)n1`, the Potency is inactive: > 76.9 µM.
The result for `CCc1c(C(=O)NC2CCCCC2)[nH]c(C)c1C(C)=O` reads inactive: > 76.9 µM; that for `O=C1C=C(NCCN2CCOCC2)CC(c2ccccc2)C1` (centres undefined), inactive: > 76.9 µM.
For `COc1cccc(-n2c(SCC(N)=O)nc3c([nH]c4ccccc43)c2=O)c1`, the Potency was inactive: > 76.9 µM.
With `Cn1cnnc1SCc1ccc(C(=O)n2ncc(C#N)c2N)cc1`, the Potency is inactive: > 76.9 µM.
For the compound `COc1ccccc1-c1cc(C(=O)Nc2c(F)cc(F)cc2Br)no1`, the Potency was inactive: > 76.9 µM.
Turning to `O=C(NCN1CCN(c2ccccc2F)CC1)c1ccccc1`, the Potency was inactive: > 76.9 µM.
For `CCCCOCCCNC(=O)c1c(-c2ccccc2)noc1C`, the Potency is inactive: > 76.9 µM.
`CCOc1ccccc1-n1c(SCC(=O)N(C(C)C)C(C)C)nnc1-c1cccnc1`: the Potency was inactive: > 76.9 µM.
The same measure for `CCN(CC)CCCNC(=O)c1nn(-c2ccccc2OC)c(=O)c2ccccc12`: inactive: > 76.9 µM.
`Cc1cc2c3c(c1)C1(C(=O)N3C(C)(C)CC2C)C(C#N)=C(N)Oc2n[nH]c(C)c21` (centres undefined): the Potency was inactive: > 76.9 µM.
`Cc1cc(Cl)ccc1OCCCC(N)=O`: the Potency was inactive: > 76.9 µM.
The same measure for `CCOC(=O)c1cnn(-c2nc(CC)nc3sc4c(c23)CCC4)c1N`: inactive: > 76.9 µM.
Turning to `CCCCn1c(SCC(=O)NCCc2ccc(OC)c(OC)c2)nc2c1c(=O)n(C)c(=O)n2C`, the Potency is inactive: > 76.9 µM.
The same measure for `CC(=O)NC(Cc1ccccc1C)C(=O)NC1CCN(c2c3c(nc4ncnn24)CCC3)CC1` (centres undefined): inactive: > 76.9 µM.
Regarding `COCCN(CC(=O)Nc1ccccc1)S(=O)(=O)c1ccc(S(=O)(=O)N2CCCC2)cc1`, the Potency was inactive: > 76.9 µM.
Take `COc1ccccc1C(=O)NCCC(=O)N1CC(=O)Nc2ccccc21`: the Potency is inactive: > 76.9 µM.
For the compound `COC(=O)c1[nH]cnc1C(=O)c1ccccc1`, the Potency is inactive: > 76.9 µM.
The same measure for `COc1ccc(C2NC(=O)CS2)cc1OC` (centres undefined): inactive: > 76.9 µM; for `O=C(COC(=O)c1ccccc1NC(=O)c1ccco1)Nc1ccc2c(c1)OCO2`: inactive: > 76.9 µM; for `Cc1cc2nc(-c3cccnc3SCC(=O)NCc3ccco3)[nH]c2cc1C`: inactive: > 76.9 µM.
For the compound `Cc1cc2c(cc1C)NC(c1ccccn1)C1=C(CC(C)(C)CC1=O)N2` (centres undefined), the Potency is inactive: > 76.9 µM.
The same measure for `Cc1sc(NC(=O)CN2CCN(c3ccccn3)CC2)c(C#N)c1C`: inactive: > 76.9 µM.
The result for `O=C(O)C1CCC(CNCc2cccnc2)CC1` (centres undefined) reads inactive: > 76.9 µM.
In the case of `CCn1c(SCC(=O)c2ccccc2)nnc1-c1cc2cc(Br)ccc2o1`, the Potency is inactive: > 76.9 µM.
The same measure for `COc1ccc2oc(=O)c(C(=O)N3CCN(c4ccccc4)CC3)cc2c1`: inactive: > 76.9 µM.
Regarding `CCOc1cc(C2NC(=O)NC(O)(C(F)(F)F)C2C(=O)c2ccc(OC)cc2)ccc1O` (centres undefined), the Potency is inactive: > 76.9 µM.
On to `O=C(OC(C(=O)NCc1ccc2c(c1)OCO2)c1ccccc1F)c1ccco1` (centres undefined), for which the Potency is inactive: > 76.9 µM.
Regarding `CCCn1c(SCC(=O)c2cc(OC)ccc2OC)nc2c1c(=O)n(C)c(=O)n2C`, the Potency was inactive: > 76.9 µM.
As to `Cc1cc(Cl)ccc1OCC(=O)Nc1ccccc1N1CCOCC1`, the Potency is inactive: > 76.9 µM.
For the compound `CCCCC(NC(C)=O)c1nc2ccccc2n1CCCC` (centres undefined), the Potency was inactive: > 76.9 µM.
The result for `Cc1ccc(-c2nnn(CCC(=O)Nc3ccc4c(c3)OCO4)n2)cc1` reads inactive: > 76.9 µM; that for `COc1ccc(S(=O)(=O)N2CCN(Cc3ccc(Cl)cc3)CC2)cc1`, inactive: > 76.9 µM; that for `Cc1ccc(CN(C(=O)Cn2nnc3ccccc32)C(C(=O)NCc2ccco2)c2cccs2)cc1` (centres undefined), inactive: > 76.9 µM.
As to `CSc1nc2cc(F)c(F)cc2n1C`, the Potency was inactive: > 76.9 µM.
With `COc1cc(OC)c(C2CC(=O)N3CN(c4ccccc4C)CSC3=C2C#N)cc1OC` (centres undefined), the Potency was inactive: > 76.9 µM.
With `O=C(CCNS(=O)(=O)c1cccc2nsnc12)NC1CCN(Cc2ccccc2)CC1`, the Potency is inactive: > 76.9 µM.
In the case of `c1coc(Cn2c(SCc3nc4ccccc4[nH]3)nnc2-c2cnccn2)c1`, the Potency was inactive: > 76.9 µM.
Consider `O=C(COC(=O)c1cn(-c2ccccc2)nc1-c1cccs1)NC1CC1`, for which the Potency was inactive: > 76.9 µM.
Turning to `COc1ccc(NC(=O)CSc2nnc(CNC(=O)c3ccco3)n2-c2ccccc2OC)cc1`, the Potency is inactive: > 76.9 µM.
Regarding `Cc1cc(Cl)c(S(=O)(=O)Nc2ccc3c(c2)OCO3)cc1OCC(N)=O`, the Potency is inactive: > 76.9 µM.

Values taken from PubChem BioAssay AID360 (National Center for Advancing Translational Sciences (NCATS), 2006).
